The other results are listed elsewhere or left out.
What was measured:
Test in all cases: glycan array binding signal (z-score within array); higher = stronger binding
Conditions in all cases: glycan notation: IUPAC condensed, linker removed
Neu5Ac(a2-8)Neu5Ac = target: Neu5Ac(a2-8)Neu5Ac
In short: (§1)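 Columns mapping to the same glycan were averaged after glycan names were converted to IUPAC-condensed notation. The data come from 3228 arrays in the Consortium for Functional Glycomics database, limited to those with an available protein sequence. Binding is reported as a within-array Z-score averaged across arrays of one protein sequence and across linkers.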

[1] = target: Neu5Ac(a2-8)Neu5Ac(a2-3)Gal(b1-3)GalNAc(b1-4)[Neu5Ac(a2-3)]Gal(b1-4)Glc
In short: as §1

[2] = target: Neu5Ac(a2-8)Neu5Ac(a2-3)Gal(b1-3)GalNAc(b1-4)[Neu5Ac(a2-8)Neu5Ac(a2-3)]Gal(b1-4)Glc
In short: as §1

[3] = target: Neu5Ac(a2-8)Neu5Ac(a2-3)Gal(b1-4)Glc
In short: as §1

[4] = target: Neu5Ac(a2-8)Neu5Ac(a2-3)Gal(b1-4)GlcNAc
In short: as §1

[5] = target: Neu5Ac(a2-8)Neu5Ac(a2-3)[Gal(b1-3)GalNAc(b1-4)]Gal(b1-4)Glc
In short: as §1

[6] = target: Neu5Ac(a2-8)Neu5Ac(a2-3)[GalNAc(b1-4)]Gal(b1-4)Glc
In short: as §1

[7] = target: Neu5Ac(a2-8)Neu5Ac(a2-8)Neu5Ac
In short: as §1

[8] = target: Neu5Ac(a2-8)Neu5Ac(a2-8)Neu5Ac(a2-3)Gal(b1-4)Glc
In short: as §1

[9] = target: Neu5Ac(a2-8)Neu5Ac(a2-8)Neu5Ac(a2-3)[Gal(b1-3)GalNAc(b1-4)]Gal(b1-4)Glc
In short: as §1

[10] = target: Neu5Ac(a2-8)Neu5Ac(a2-8)Neu5Ac(a2-3)[GalNAc(b1-4)]Gal(b1-4)Glc
In short: as §1

[11] = target: Neu5Ac(a2-8)Neu5Ac(a2-8)Neu5Ac(a2-8)Neu5Ac(a2-3)[GalNAc(b1-4)]Gal(b1-4)Glc
In short: as §1

[12] = target: Neu5Ac(a2-8)Neu5Gc(a2-3)Gal(b1-4)GlcNAc
In short: as §1

[13] = target: Neu5Ac(b2-6)Gal(b1-4)GlcNAc
In short: as §1

Neu5Ac(b2-6)GalNAc = target: Neu5Ac(b2-6)GalNAc
In short: as §1

[14] = target: Neu5Ac9Ac(a2-3)Gal(b1-3)GlcNAc
In short: as §1

[15] = target: Neu5Ac9Ac(a2-3)Gal(b1-4)GlcNAc
In short: as §1

[16] = target: Neu5Ac9Ac(a2-6)Gal(b1-4)GlcNAc
In short: as §1

[17] = target: Neu5Gc(a2-3)Gal(b1-3)GlcNAc
In short: as §1

[18] = target: Neu5Gc(a2-3)Gal(b1-3)[Fuc(a1-4)]GlcNAc
In short: as §1

Neu5Gc(a2-3)Gal(b1-4)Glc = target: Neu5Gc(a2-3)Gal(b1-4)Glc
In short: as §1

[19] = target: Neu5Gc(a2-3)Gal(b1-4)GlcNAc
In short: as §1

[20] = target: Neu5Gc(a2-3)Gal(b1-4)GlcNAc(b1-3)Gal(b1-4)GlcNAc(b1-2)Man(a1-3)[Neu5Gc(a2-3)Gal(b1-4)GlcNAc(b1-3)Gal(b1-4)GlcNAc(b1-2)Man(a1-6)]Man(b1-4)GlcNAc(b1-4)GlcNAc
In short: as §1

[21] = target: Neu5Gc(a2-3)Gal(b1-4)[Fuc(a1-3)]GlcNAc
In short: as §1

[22] = target: Neu5Gc(a2-6)Gal(b1-4)GlcNAc
In short: as §1

Neu5Gc(a2-6)GalNAc = target: Neu5Gc(a2-6)GalNAc
In short: as §1

[23] = target: Neu5Gc(a2-8)Neu5Ac(a2-3)Gal(b1-4)GlcNAc
In short: as §1

[24] = target: Neu5Gc(a2-8)Neu5Gc(a2-3)Gal(b1-4)GlcNAc
In short: as §1

[25] = target: Neu5Gc(a2-8)Neu5Gc(a2-3)Gal(b1-4)GlcNAc(b1-3)Gal(b1-4)GlcNAc
In short: as §1

[26] = target: Neu5Gc(a2-8)Neu5Gc(a2-6)Gal(b1-4)GlcNAc
In short: as §1

[27] = target: Neu5Gc(b2-6)Gal(b1-4)GlcNAc
In short: as §1

B1: Cohesin-hDC-ASGPR (Homo sapiens) (protein)
chain: LDDLDAVRIKVDTVNAKPGDTVRIPVRFSGIPSKGIANCDFVYSYDPNVLEIIEIEPGDIIVDPNPDKSFDTAVYPDRKIIVFLFAEDSGTGAYAITKDGVFATIVAKVKEGAPNGLSVIKFVEVGGFANNDLVEQKTQFFDGGANVGDTTEPATPTTPVTTPTTTDDLDAASQNSKFQRDLVTLRTDFSNFTSNTVAEIQALTSQGSSLEETIASLKAEVEGFKQERQAGVSELQEHTTQKAHLGHCPHCPSVCVPVHSEMLLRVQQLVQDLKKLTCQVATLNNNASTEGTCCPVNWVEHQDSCYWFSHSGMSWAEAEKYCQLKNAHLVVINSREEQNFVQKYLGSAYTWMGLSDPEGAWKWVDGTDYATGFQNWKPGQPDDWQGHGLGGGEDCAHFHPDGRWNDDVCQRPYHWVCEAGLGQTSQESHHHHHH
glycan array binding signal (z-score) (Neu5Ac(a2-8)Neu5Ac): -0.501
glycan array binding signal (z-score) [1]: -0.451
glycan array binding signal (z-score) [2]: -0.482
glycan array binding signal (z-score) [3]: -0.509
glycan array binding signal (z-score) [4]: -0.505
glycan array binding signal (z-score) [5]: 3.87
glycan array binding signal (z-score) [6]: 2.47
glycan array binding signal (z-score) [7]: -0.522
glycan array binding signal (z-score) [8]: -0.519
glycan array binding signal (z-score) [9]: -0.455
glycan array binding signal (z-score) [10]: 2.45
glycan array binding signal (z-score) [11]: 2.95
glycan array binding signal (z-score) [12]: -0.521
glycan array binding signal (z-score) [13]: -0.488
glycan array binding signal (z-score) (Neu5Ac(b2-6)GalNAc): 1.32
glycan array binding signal (z-score) [14]: 0.093
glycan array binding signal (z-score) [15]: -0.49
glycan array binding signal (z-score) [16]: -0.357
glycan array binding signal (z-score) [17]: -0.406
glycan array binding signal (z-score) [18]: -0.285
glycan array binding signal (z-score) (Neu5Gc(a2-3)Gal(b1-4)Glc): -0.459
glycan array binding signal (z-score) [19]: -0.279
glycan array binding signal (z-score) [20]: -0.416
glycan array binding signal (z-score) [21]: 2.01
glycan array binding signal (z-score) [22]: -0.392
glycan array binding signal (z-score) (Neu5Gc(a2-6)GalNAc): 2.81
glycan array binding signal (z-score) [23]: -0.517
glycan array binding signal (z-score) [24]: -0.515
glycan array binding signal (z-score) [25]: -0.506
glycan array binding signal (z-score) [26]: -0.501
glycan array binding signal (z-score) [27]: -0.499
